Test results reported in PubChem BioAssay (NCI).
Some structures have more than one record in an assay (separate samples or runs), and their calls can disagree.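 Plates (96-well) were seeded with cells, treated with compound at one concentration, and incubated for 48 hours before percent growth was determined.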 Some entries of the source have several records that differ or are many. This is not the full list of results. The source may hold further records. The calls were made as follows: active = growth percent below 10; inactive = the rest. These are repeated runs of one drug, at its own concentration, as given; one value stands for one run. Counts like (3×) stand for listed records that agree.

System: HOP-92 NSCLC
Test: NCI-60 one-dose screen, 48 h (100 = growth as untreated, 0 = no growth, -100 = all killed)
Settings: 0.25 µM

SMILES: COc1cccc2c1C(=O)c1c(O)c3c(c(O)c1C2=O)C[C@@](O)(C(=O)CO)C[C@@H]3OC1CC(N)C(O)C(C)O1 (stereo not given in full)
- growth (runs of 2006): active: -3.49%, 9.41%
- growth (runs of 2007): active: -8.8, -4.63, -11.7, -12.8, -0.101, -5.72, -7.15, 8.99, -1.19, -16.9, -14.7, 6.01, -12.5, -2.68, -10.7, -25.5, -11.4, 5.85, -17.3, 1.13, 5.64, -19.9% and inactive: 14.4, 17, 16.1, 15.4, 16.3, 20.5, 13.5, 17.2, 32.4, 20.6, 24.7, 15.9, 11.1, 29.9 (2×), 15.1, 30.4, 31.3, 38.1, 39, 21.1, 40.7%
- growth (runs of 2008): inactive: 31.7, 60.4, 10.5, 25.2, 15.6, 35.8, 14.5, 32.3, 12.1, 37.2, 22.9, 16.4, 11.3, 19.2, 25.7, 17.8, 71.6, 11.4, 15.5, 37.5, 12.5, 29.4, 41, 28.3, 11.5, 36.9, 52.2, 18, 46.5, 23.1, 10.9% and active: -11.1, 9.68, 3.28, -8.59, 3.43, -4.33, -12.7, -0.687, 3.49, -2.74, 7.63, 0.426, 1.55, -14, -26.5, -10.5, -5.79, -19.6, -18%
- growth (runs of 2009): active: -10.9, -8.14, 4.41, 8.41, -2.04, -4.58, -2.88, 1.43, -4.34, 6.8, -6.63, -9.77, 1.64, -11.1, -2.66, 7.51, 9.14, 5.68, 3.68, -4.38, 2.1, -6.57, -6.69, -7.01% and inactive: 27.2, 58, 63.6, 37.3, 40.4, 53.5, 45.3, 29.5, 43.6, 32.1, 15, 35.6, 41, 39.5, 35.9, 39.4, 11.8, 20.5 (2×), 31.9, 13.2, 21.2, 21.4, 19.3, 23.1, 29.8, 58.5, 32, 45.8, 35.7, 43.7, 46.5, 26.3, 55.4, 15.5, 26.1, 17%
- growth (runs of 2010): inactive: 24.2, 31.9, 50.2, 25.2, 20.6 (2×), 57.7, 40.3, 28.6, 33.3, 15.5, 35, 56.6, 26.3, 17.3, 16.5, 30.2, 10.6, 23, 22.2, 33.2, 60.4, 45.7, 61.8, 26.1, 22.8, 31.1, 24.4, 17.1, 25.9, 39.1, 23.4, 29.7, 67.1, 17.7, 42.4, 49.1, 41.1, 18.4, 46, 21.7, 59.3% and active: 8.06, 3.33, -1.42, -6.39, -7.23, 9.34%
- growth (runs of 2011): inactive: 43.6, 32.9, 28.9, 37.3, 39.3 (2×), 32.2, 26.5, 11.6, 58.7, 60.4, 42.7, 29.5, 59.7, 47.4 (2×), 41.2, 40.3, 53.3, 40.7, 53.8, 38.8, 35.8, 65.7, 65, 54.3, 45.2, 52.8, 52.7, 30.7, 68, 42.8, 44.7, 46, 13.6, 24.9, 17.6, 32.5, 17, 36.8, 45, 43.2, 34.9, 23.7, 12.5, 22.9, 13.1, 20.1, 12% and active: 1.02, -1.33, 8.75, 1.28, 4.38%
- growth (runs of 2012): inactive: 37.3, 47.9, 38.5 (2×), 15.6, 32.9, 14.2 (2×), 51.1 (2×), 21.2, 16.3, 41.1 (2×), 42.9, 14, 12.2, 61.3, 40.2, 29, 24.7, 19.7, 14.6, 19.1, 13.6, 42.2, 38.8, 32.4, 49.1 (3×), 37.2, 49.7, 30.9, 39.4, 52.2, 17.2, 13.4, 40.3, 57.8, 28.3, 25.5, 56.2, 40.6, 76.7, 58.6, 55.9, 21.9, 67.5, 80.1, 29.5, 64.7, 18.8, 45.7, 43.2% and active: 9.65, 8.07, 0.704, 1.76, -1.91, -1.56, -0.632, -3.25, -5.57, 8.47, 7.78, 9.29, 8.3, 9.98%
- growth (runs of 2013): inactive: 20.3, 25.3, 44.4, 39.3, 32.7 (2×), 28.2, 17.8 (2×), 69, 53.6 (2×), 49.5, 26.2, 51, 28.9, 59.7, 25.4, 27.7, 58 (2×), 25.7, 46.5, 56.1, 11.1, 24.9, 21, 11.3, 50.5, 19.8, 10.3, 36.6, 48.2, 55.5, 31.6, 29, 23.5, 18.3, 55.9, 40.7, 20.6, 14.7, 20.8, 23.3, 22.7, 35.1, 19.7, 40.6, 28.6, 38.1% and active: 6.96, 7.27, 3.37, 3.83, 5.93, 0.716, -6.58, -6.92, 4.43, 7.88, -5.55, 9.98%
- growth (runs of 2014): inactive: 12.1, 12.8, 31.6 (2×), 22, 14.5, 12.5, 11.8, 37.4, 35.4, 47.5, 38.8, 29.8, 26.1, 27.6, 33.3, 42.2, 48.7, 31.5, 14.7, 17.9, 22.1, 16.3, 16.8, 30.5, 16.2, 21 (2×), 26.2, 27.9, 20.6, 44.6, 24.2, 50.1, 41.1, 36.4, 23.2, 24, 10.3, 22.8, 40.2, 40.8, 20.2, 13.4, 39.1, 24.3, 33.7, 31.1, 33.6, 27.8, 51, 32.8, 53.4, 51.9 (2×), 47.6, 47.4, 56.3, 57.7, 52.3, 57.2, 54.4, 57, 63.6, 54.9% and active: 3.82, -3.02, -0.727, -5.12, -2.84, -11.8, 7.37, 0.556, 3.83, 2.71, 5.62, 5.27, -3.64, -4.14, -4.21, 0.352, 4.96, 6.65, 3.62%
- growth (runs of 2015): inactive: 42.1, 13.8, 41.9 (2×), 37.2, 28 (2×), 40.7 (2×), 36.5, 28.4, 39.5, 51.7, 57.7, 35.8, 44.1, 26.7, 27.3 (2×), 44.4, 25.3, 44.9, 49, 34.5, 40.2, 33.6, 35.6, 25.5, 22.9, 13.3 (2×), 35.2 (2×), 10.1, 15.1, 17.5, 23.4 (2×), 29.5, 50.9, 61.9, 55.4, 50.3, 15.7, 53.3, 43.2, 40.5, 33.8, 39.4, 28.6, 31.9, 11, 25, 38.7, 23.7, 26.2, 20.8, 49.1, 49.9, 55.2, 49.8, 47.8 (2×), 31.3, 40.9, 48.8, 43, 54.3, 36.1, 42.4, 34.4% and active: 5.6, 9.29, -2.45, 9.46, 6.95, -3.79, -1.04, 6.62%
- growth (runs of 2016): inactive: 12.8, 12.7, 24, 11.3, 32.1, 37.9 (2×), 66.6, 55.2, 41.2, 40, 30.3, 37.7, 33.2, 29, 29.4, 39.3, 16.4, 15.6, 22, 37.2, 40.2 (2×), 21.7 (2×), 36.4, 42.2, 31.1, 31.2, 22.7, 36.6, 32.5, 47, 47.9, 31, 46.9, 32.2, 31.9 (2×), 66.7, 19.9, 53.1, 42 (2×), 23.3, 37.5, 22.1, 47.1, 49.5, 27.8 (2×), 45.6, 59.4, 33.6, 37.3, 21.4, 40.3 (3×), 39, 40.4, 34.5, 26.5, 17, 32.4, 25.4, 53, 50.4, 33.9, 46.6, 51.8, 44.2 (2×), 58.3, 38.1, 31.7, 33.3, 29.9, 27.1, 12.2, 38, 28.3% and active: 1.6%, 2.17%
- growth (runs of 2017): inactive: 41.8, 34.6, 24, 18.9, 19.9 (2×), 14.3, 44.1, 32.4, 31.2, 41.5, 37.3 (2×), 23.3, 34.2, 35.6 (2×), 41, 38.1 (2×), 33.3, 26.8, 28, 41.9 (2×), 36.6, 36.7 (2×), 38.4, 33.9, 16.5 (2×), 61.4, 41.3, 45.7, 42.4, 37.6, 38.5, 37.7, 38.8, 14.7, 33.1, 42.8, 22.6, 28.4, 27.9, 49.7, 30.8 (2×), 42.1, 27, 32.5, 35.9, 39, 35.2, 29.9, 19.3, 24.5 (2×), 34, 25.9 (2×), 50.1, 44.5, 30, 26, 10.9, 11.8, 15.2, 10.2, 38.7, 31.6, 38.6, 34.9, 20% and active: 1.83%
- growth (runs of 2018): inactive: 26.6, 29, 17.7, 10.7, 25.1, 16.8, 14.3, 14, 20.5, 31.4, 47.2, 40.5, 28.6, 27.8 (2×), 21.2, 18.2, 11.8, 11.1, 39.6, 30.2, 14.6, 34.5, 25.8, 28.9, 25.5, 15.4, 15.8, 21.6, 10.1, 17.9, 33.9, 22.1, 13.4, 14.7, 17.8, 21.7, 39.5, 34.3, 15.2, 19.8% and active: 8.92, 0.642, -1.12, 8.31, 1.17, -0.0032, 2.3, 9.87, 1.79, 2.35, 1.62, 7.41, 5.63%
- growth (runs of 2019): inactive: 31.9, 21.1, 33.1, 21.2 (2×), 11.1, 18, 14.2, 35.2, 24.4, 41.7 (2×), 20.2 (2×), 37.2, 31.4 (2×), 35.3, 23.4 (2×), 26.5, 18.7, 16.5, 22.3, 18.3, 17.6, 20.9, 34.6, 26.6, 25, 40.8, 30.2, 24.7, 26.8, 22.8, 28.4, 12.5, 10.4, 20.5, 22, 33.3, 25.4, 20.7, 21% and active: 1.96, 3.87, 4.37, 8.95, 0.642, 7.57%
- growth (runs of 2020): inactive: 12.3, 17.7, 11.8, 10.5, 15.6, 20.8, 31.6 (2×), 24.2, 39.6, 33.2, 34.6, 10.4, 30.2, 11.1, 26.2, 34.1, 23.4, 44.5, 47.5, 17.3% and active: 5.15%, 9.16%
